The supplement of paper PMC3334620
In all, about 33,000 sequences were measured (“E-score (-0.5 to 0.5)”: median about -0.054, highest 2% from about 0.39 on). The list shows a part of the results.

Target: Ylr278c (UniProt Q05854)
Experiment: PBM E-score (8-mer binding enrichment) (E-score (-0.5 to 0.5)); higher = stronger / more preferred TF binding; most listed sequences are background and not binding sites
Settings: protein concentration: 200 nM; construct: GST-DNA-binding domain
Method in brief: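 Yeast transcription factors, full-length or as DNA-binding domains, were expressed with a GST tag using PURExpress in vitro transcription/translation. At about 100-200 nM they were applied to universal all-10-mer Agilent arrays, double-stranded by primer extension on fresh or once-stripped slides. Fluorescent anti-GST detected bound protein, and masliner normalised the scans. E-scores for ungapped eight-base words, pooled with reverse complements, came from the Universal PBM Analysis Suite.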

Row | Sequence | PBM E-score
1 | CAGCTGTA | -0.0449
2 | CACCGGTA | 0.297
3 | TATTCGAA | -0.174
4 | AATGTACT | -0.00461
5 | CTAGTCCC | -0.204
6 | TGACGGCA | 0.118
7 | CAACAGAC | -0.0435
8 | CAGAAAAC | -0.175
9 | GTCAACAC | -0.0756
10 | ACGGCTCG | 0.128
11 | CCATCGTC | 0.0342
12 | CACTGGTA | -0.203
13 | GGTACACC | -0.0332
14 | AATAGAAT | -0.191
15 | ATCACTAG | -0.204
16 | GTACGCAC | -0.171
17 | GAGTCCAA | -0.0736
18 | CCAGAACG | -0.14
19 | ACCGGTCA | 0.231
20 | ATCGCCCG | 0.267
21 | AGCAGGCT | -0.169
22 | CTGACTTA | -0.054
23 | ACTTCTCT | -0.271
24 | AATTGCCC | 0.118
25 | CTTACATC | -0.0831

Row | Sequence | PBM E-score
26 | GAGACGGA | 0.325
27 | TACCGTGA | -0.011
28 | ACTGTCAA | -0.184
29 | ATAGAGCG | -0.00142
30 | CTTGAGTC | -0.105
31 | ATGGTGCA | -0.126
32 | ATTCGGAC | 0.392
33 | GGCACCAA | 0.17
34 | GATGTAGA | -0.192
35 | AACGCAAC | -0.0186
36 | ACTAATAT | -0.0231
37 | ATCGGTCG | 0.175
38 | GGTCTACA | -0.135
39 | AAAGCTCG | -0.0573
40 | GTAAATGA | 0.024
41 | AATTACAT | 0.0332
42 | CGGGACAA | 0.196
43 | ACATGAAA | -0.224
44 | CATATGGC | -0.0951
45 | CAGATGGC | -0.0558
46 | GGTCACTA | -0.038
47 | GTTGGTGA | -0.0775
48 | ATTTGAGG | -0.151
49 | CAGGGAAC | -0.262
50 | AAGAACCA | -0.108

Row | Sequence | PBM E-score
51 | AATACGCT | 0.0256
52 | AATTCAGT | -0.178
53 | AAATGTGC | 0.214
54 | TGCGACCA | 0.0635
55 | GGCTCCGA | 0.393
56 | CGTGCAGA | -0.22
57 | CCGTGTGA | 0.126
58 | TCTCGGAA | 0.414
59 | AATTAAGG | -0.158
60 | CATTCGAG | -0.112
61 | AGCCAAAG | -0.187
62 | GACTCATC | -0.227
63 | CAGGTGCC | -0.0337
64 | ACGCACGG | 0.126
65 | ATTCGGTA | 0.0941
66 | GTCGATAA | -0.152
67 | AGATGGAC | 0.0253
68 | AAAGAAGT | -0.0518
69 | ACTGAGCA | -0.249
70 | CAACTTGA | 0.0106
71 | ATGGGGGA | -0.158
72 | AACGAATT | -0.0276
73 | GAAGATTA | 0.0826
74 | TCATCACA | -0.258
75 | ACACAGCT | -0.174

Row | Sequence | PBM E-score
76 | TAGGTGCA | -0.176
77 | CCAACAAA | -0.142
78 | AAACCTAA | 0.0256
79 | GAAGAACA | 0.137
80 | ACAGGAAG | -0.0603
81 | GCTAACCC | 0.00081
82 | CCCAGCAA | -0.0346
83 | CGAGAGGA | -0.15
84 | ATAGCTAG | -0.281
85 | GTCAAGGA | -0.166
86 | CATTGCAG | -0.292
87 | CGACGGTA | 0.169
88 | AGTTGACC | 0.183
89 | CCAGAGAC | -0.238
90 | GATTTCTA | 0.238
91 | ACGAATGG | -0.027
92 | AATGCGCT | -0.0327
93 | CAACGCTA | -0.0359
94 | CTTTGGGC | 0.124
95 | CGCAACCA | 0.113
96 | GACCGTGA | 0.085
97 | AAAGCAAA | -0.00658
98 | CACCCATC | -0.0814
99 | CTGTGGCC | -0.0408
100 | AGCTGTTC | -0.116

Row | Sequence | PBM E-score
101 | AAACAGGT | -0.193
102 | CAATTAAG | 0.0362
103 | TCAACTCA | -0.0706
104 | GAGCCAAA | -0.0664
105 | AATCAGGT | -0.0317
106 | AAGTTCAA | 0.118
107 | AATCTCCC | 0.0563
108 | AGCTACCA | -0.127
109 | CTATAAAG | 0.0306
110 | GATTTGCC | 0.117
111 | CCCTTTGA | -0.21
112 | GCCGCACA | 0.0283
113 | ATATAACC | -0.0128
114 | AAACCTAG | -0.173
115 | GCAGCCCA | -0.0644
116 | AGTTTGGA | -0.153
117 | AAAATATA | 0.0225
118 | ATGCAAGG | -0.145
119 | GCCAGGAC | -0.127
120 | TAGGGACA | -0.0143
121 | GGAAGAAA | -0.00281
122 | AAGAAGGG | -0.269
123 | AGCGTGCG | 0.186
124 | CCATATAA | -0.139
125 | AATACGAA | -0.0523

Row | Sequence | PBM E-score
126 | CATTTAGC | -0.163
127 | GTAGAAGA | -0.177
128 | CCGCCCTA | 0.0619
129 | GAAGAGAC | 0.0662
130 | AACAGCTA | -0.129
131 | CACAACCC | -0.038
132 | CACATAAG | -0.256
133 | GCAAAGGC | -0.123
134 | CACCGGGA | 0.352
135 | AGTATACT | -0.327
136 | ATTAGAAA | -0.0531
137 | ACGCCGAT | 0.281
138 | AGCCAACT | -0.179
139 | GAGCGTAA | 0.0612
140 | GGAAGACC | 0.169
141 | AACTGATT | -0.223
142 | AGCGTAAC | -0.133
143 | GACGAGTC | -0.161
144 | CCGTTACG | 0.237
145 | AAAGTTGG | -0.172
146 | TAATGATA | 0.00563
147 | GGTGCCAC | -0.109
148 | AAAATGAT | 0.185
149 | CTTTCCCA | -0.083
150 | ACGCTCTA | -0.183

Row | Sequence | PBM E-score
151 | CGCTGCGA | -0.0136
152 | AGCGCAAG | -0.142
153 | CTCCGTCA | 0.421
154 | AGTGGGTC | -0.0272
155 | AATCTGCT | -0.168
156 | AGGTTGCC | 0.0629
157 | AGGCACCT | -0.0258
158 | CCTGGCCC | -0.0682
159 | CTCAATCA | -0.0469
160 | CTAAGTAA | -0.0989
161 | ACGTAACG | -0.0482
162 | CGCGATGC | 0.0326
163 | CTTCTCCA | -0.168
164 | CATATCGG | 0.154
165 | AGTTCCCA | 0.00271
166 | ACAGGTGA | -0.108
167 | AGGGTCCG | 0.325
168 | CAGGACGC | -0.305
169 | TGTGTCAA | -0.227
170 | CAAATATA | -0.141
171 | CAGGGGGC | -0.125
172 | AGCGGTAG | -0.168
